Results on 5 molecules are retold here after patent US20240190994A1, “FUSION PROTEIN BETWEEN ANTIGEN-BINDING MOLECULE AND STREPTAVIDIN VARIANT” (The University of Tokyo, priority 2021, published 2024).

Data set [1] relates to Her2-positive cells (KPL-4). As to the kind of experiment: cytotoxicity using FL2 linker variants and photosensitizer Psyche, Cell Counting Kit-8. Conditions: complex of protein with photosensitizer Psyche (Compound 8) molar ratio 1:2, 10-fold dilutions from 10 μg/mL, 690-nm light 100 J/cm^2, FIGS. 9A to D. In kind it is cell-based, Human. How it is done:
Her2-positive cells (KPL-4) were seeded on a 96-well plate to result in a cell count of 1×10^4 cells/well and a culture solution amount of 50 μL/well, and were then cultured overnight. The purified FL2-G5Sx3-del5, FL2-G4Sx1-del5, FL2-G4Sx2-del5 or FL2-G4Sx3-del5 and the photosensitizer Psyche (Compound 8 produced in the above Production Example 6) were mixed with each other to a molar ratio of 1:2 (hereinafter referred to as a “complex”), and 8 series of 10-fold dilution series (including zero concentration) were prepared from 10 μg/mL. After the dilution series had been prepared, the complex was added to the cells, and 24 hours later, the cells were irradiated with an LED emitting a 690-nm light at 100 J/cm^2 from the bottom surface of the culture plate. Thereafter, the cells were cultured for 24 hours. After the complex-containing medium had been removed, the cells were washed with PBS once, and a fresh medium was then added. A comparison was then made in terms of the number of living cells, using Cell Counting Kit-8 (DOJINDO LABORATORIES). A reagent was added in accordance with the dosage and administration described in the instruction manual, and the resulting cells were then incubated at 37° C. in a CO2 incubator for 1.5 hours. After that, the absorbance at 450 nm was measured, and the mean value was then calculated, followed by background correction. Thereafter, the control was set at 100%, and the cell proliferation percentage to the control under individual conditions was calculated. The results are shown in (FIGS. 9A to D).
On the technique in general: Formazan colour is commonly taken as a measure of viable cells.

A short description of data set [2]: SPR (Biacore T200) binding activity of FL to Psyche, single cycle kinetics. Conditions: FL immobilized, Psyche 2-fold dilution series 1 E-08 M to 6.25 E-10 M, FIG. 3. How it is done:
The purified FL was analyzed using SPR (Biacore T200, Cytiva), in terms of the binding activity to Psyche. The FL was immobilized on a Sensor Chip CMS (Cytiva) according to the amine coupling method, and the binding activity of the FL to Psyche was then analyzed according to a single cycle kinetics method using Psyche dilution series (5 series, 2-fold dilution series from 1 E-08 M to 6.25 E-10 M) as analytes.

In data set [3] the target is T1, HER2 (ErbB2); Recombinant Human ErbB2/Her2 Fc Chimera Protein (Homo sapiens, UniProt P04626).
T1 construct: purchased R & D SYSTEMS
As to the kind of experiment: SPR (Biacore T200) binding activity of FL to HER2. Particulars: Her2 immobilized, FL 2-fold dilution series 1 E-08 M to 6.25 E-10 M, FIG. 2. The method, then:
The purified FL was analyzed using SPR (Biacore T200, Cytiva), in terms of the binding activity to HER2 (ErbB2). The Her2 antigen (Recombinant Human ErbB2/Her2 Fc Chimera Protein, R & D SYSTEMS) was immobilized on a Sensor Chip CMS (Cytiva) according to an amine coupling method (Amine Coupling Kit, Cytiva). Subsequently, the binding activity was measured using the FL dilution series (2-fold dilution series from 1 E-08 M to 6.25 E-10 M).
On the technique in general: In SPR one partner is held on a chip, and binding of the other changes the refractive index at the surface.

B1: FL2-G4Sx3-del5: SEQ ID NO: 24; linker of 3 units of 4 glycine residues and 1 serine residue (protein)
chain: MVDNKFNKEMRNAYWEIALLPNLNNQQKRAFIRSIYDDPSQSANLLAEAKKLNDAQAPKGGGGSGGGGSGGGGSAEAGITGTWSDQLGDTFIVTAGADGALTGTYENAVGGAESRYVLTGRYDSAPATDGSGTALGWTVAWKNNSKNAHSATTWSGQYVGGADAKINTQWLLTSGTTNANAWKSTLVGHDTFTKVK
Turning to B1, the “cytotoxicity (cell proliferation percentage to control)” value in data set [1] is “light- and concentration-dependent cytotoxicity”.

B2: FL: fusion of Cupid mutant streptavidin (SEQ ID NO: 1) with HER2-recognizing molecule (SEQ ID NO: 2); amino acid sequence SEQ ID NO: 4 (protein)
chain: MVDNKFNKEMRNAYWEIALLPNLNNQQKRAFIRSIYDDPSQSANLLAEAKKLNDAQAPKSGGGGGSGGGGGSGGGGGSAEAGITGTWSDQLGDTFIVTAGADGALTGTYENAVGGAESRYVLTGRYDSAPATDGSGTALGWTVAWKNNSKNAHSATTWSGQYVGGADAKINTQWLLTSGTTNANAWKSTLVGHDTFTKVKPSAASHHHHHH
Regarding B2, the “binding activity to Psyche” value in data set [2] is on record as “stable binding activity”. In data set [3], the “binding activity to HER2” value was “stable binding activity”.

B3: FL2-G4Sx2-del5: SEQ ID NO: 23; linker of 2 units of 4 glycine residues and 1 serine residue (protein)
chain: MVDNKFNKEMRNAYWEIALLPNLNNQQKRAFIRSIYDDPSQSANLLAEAKKLNDAQAPKGGGGSGGGGSAEAGITGTWSDQLGDTFIVTAGADGALTGTYENAVGGAESRYVLTGRYDSAPATDGSGTALGWTVAWKNNSKNAHSATTWSGQYVGGADAKINTQWLLTSGTTNANAWKSTLVGHDTFTKVK
As for B3, the “cytotoxicity (cell proliferation percentage to control)” value in data set [1] is “light- and concentration-dependent cytotoxicity”.

B4: FL2-G4Sx1-del5: SEQ ID NO: 22; linker of 1 unit of 4 glycine residues and 1 serine residue (protein)
chain: MVDNKFNKEMRNAYWEIALLPNLNNQQKRAFIRSIYDDPSQSANLLAEAKKLNDAQAPKGGGGSAEAGITGTWSDQLGDTFIVTAGADGALTGTYENAVGGAESRYVLTGRYDSAPATDGSGTALGWTVAWKNNSKNAHSATTWSGQYVGGADAKINTQWLLTSGTTNANAWKSTLVGHDTFTKVK
As to B4, the “cytotoxicity (cell proliferation percentage to control)” value in data set [1] is “light- and concentration-dependent cytotoxicity”.

B5: FL2-G5Sx3-del5: SEQ ID NO: 10, formed by removing the 11 C-terminal amino acids … from SEQ ID NO: 4 (protein)
chain: MVDNKFNKEMRNAYWEIALLPNLNNQQKRAFIRSIYDDPSQSANLLAEAKKLNDAQAPKSGGGGGSGGGGGSGGGGGSAEAGITGTWSDQLGDTFIVTAGADGALTGTYENAVGGAESRYVLTGRYDSAPATDGSGTALGWTVAWKNNSKNAHSATTWSGQYVGGADAKINTQWLLTSGTTNANAWKSTLVGHDTFTKVK
As for B5, the “cytotoxicity (cell proliferation percentage to control)” value in data set [1] is “light- and concentration-dependent cytotoxicity”.
